Measurements from patent publication US20220213195A1 (SHANDONG BOAN BIOTECHNOLOGY, published 2022).

How the values were obtained:
[1] = molecular target: T1, PDL1 protein (Sinobiological, catalog number: 10084-H08H); test: SPR (BIAcore 8K), fusion protein captured by anti-human IgG Fc, PDL1 as analyte 3.125-50 nM, 1:1 model
T1 construct: Bought recombinant protein

[2] = molecular target: T2, TGFβ1 (Sinobiological, catalog number: 10804-HNAC); test: ELISA, TGFβ1 coated at 0.2 µg/mL, fusion protein 1 µg/mL
T2 construct: Bought recombinant protein; also called TGFβ1 protein

[3] = molecular target: T2, TGFβ1 (Sinobiological, catalog number: …); test: ELISA, TGFβ1 coated at 0.0125 µg/mL, fusion protein 1 µg/mL
[4] = molecular target: T2, TGFβ1 (Sinobiological, catalog number: …); test: ELISA, TGFβ1 coated at 0.05 µg/mL, fusion protein 1 µg/mL

Binder	Kd [1]	koff [1]	kon [1]	OD450 [2]	OD450 [3]	OD450 [4]
PLTGBQ21-BA649-IgG1 (other, Bifunctional fusion protein: anti-PDL1 IgG1 antibody with a TGFβRII fragment at the C-terminus of the heavy chain) heavy: EVQLVQSGGGVVQPGRSLRLSCAASGFTFSSYAMHWVRQAPGKGLEWVALISYDGSNKYYADSVKGRFTISRDNSKNTLYLQMNSLRAEDTAVYYCARDRIYFDYWGQGTLVTVSS[human IgG1 constant region not listed]GGGGSGGGGSGGGGSGGGGSGIPPHVQKSVNNDMIVTDNNGAVKFPQLCKFCDVRFSTCDNQKSCMSNCSITSICEKPQEVCVAVWRKNDENITLETVCHDPKLPYHDFILEDAASPKCIMKEKKKPGETFFMCSCSSDECNDNIIFSEEYNTSNPD light: [about 200 residues not listed]	0.904 nM	0.00167 s⁻¹	1.85e+06 M⁻¹ s⁻¹	4.12 OD450	0.636 OD450	2.14 OD450
PLTGBQ19-BA533-IgG1 (other, Bifunctional fusion protein: anti-PDL1 IgG1 antibody with a TGFβRII fragment at the C-terminus of the heavy chain) heavy: EVQLVQSGGGVVQPGRSLRLSCAASGFTFSNYAMHWVRQAPGKGLEWVAIITYAGSNEYYADSVKGRFTISRDNSKNTLYLQMNSLRPEDTAVYYCARDRIWVDYWGQGTLVTVSS[human IgG1 constant region not listed]GGGGSGGGGSGGGGSGGGGSGIPPHVQKSVNNDMIVTDNNGAVKFPQLCKFCDVRFSTCDNQKSCMSNCSITSICEKPQEVCVAVWRKNDENITLETVCHDPKLPYHDFILEDAASPKCIMKEKKKPGETFFMCSCSSDECNDNIIFSEEYNTSNPD light: [about 200 residues not listed]	0.529 nM	0.000795 s⁻¹	1.5e+06 M⁻¹ s⁻¹	3.7 OD450	0.758 OD450	2.11 OD450
PLTGBQ24-BA705-IgG1 (other, Bifunctional fusion protein: anti-PDL1 IgG1 antibody with a TGFβRII fragment at the C-terminus of the heavy chain) heavy: EVQLVQSGGGVVQPGRSLRLSCAASGITFSNYAMHWVRQAPGKGLEWVALISYDGSNKYYADSVKGRFTISRDNSKNTLYLQMNSLRAEDTAVYYCARDRIYFDYWGQGTLVTVSS[human IgG1 constant region not listed]GGGGSGGGGSGGGGSGGGGSGIPPHVQKSVNNDMIVTDNNGAVKFPQLCKFCDVRFSTCDNQKSCMSNCSITSICEKPQEVCVAVWRKNDENITLETVCHDPKLPYHDFILEDAASPKCIMKEKKKPGETFFMCSCSSDECNDNIIFSEEYNTSNPD light: [about 200 residues not listed]	0.577 nM	0.000837 s⁻¹	1.45e+06 M⁻¹ s⁻¹	4.04 OD450	0.836 OD450	2.18 OD450
